Source: PubChem BioAssay AID504832 (National Center for Advancing Translational Sciences (NCATS), 2011)
The whole screen tested about 310,000 compounds, of which about 18,000 (5.8%) were called active. The inconclusive results got no clear call from the source; some entries with a clear call stand among them for comparison. The call rests on the fitted dose curve; in most records, active means well fitted inhibition curve with a large enough effect; inconclusive means small, poorly fitted or top-dose-only effect, or another doubt; inactive means no such curve, though single readings can be large or run the other way. Potencies of inconclusive entries are left out as doubtful fits.
Potency means the concentration at half of the fitted maximal effect; tags describe the fitted curve by direction and shape.

Assay: Primary qHTS for delayed death inhibitors of the malarial parasite plastid, 48 hour incubation
Settings: P. falciparum luciferase growth in erythrocytes; series mostly up to 28.7 µM
Outline: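 Growth was read as firefly luciferase luminescence after a 48 h, 37 C, 5% CO2 exposure of compounds to reporter-bearing P. falciparum cultures (0.1% parasitemia, 2% hematocrit final) in Albumax-supplemented RPMI 1640.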
For `O=C1N(Cc2cccc(Cl)c2)C[C@@H]2C[C@@H](c3cccc4cccnc34)N3CCC[C@@]123`, the Potency was inconclusive [inhibitor, partial curve].
For `CCOC(=O)N1CCN(C(=O)c2cc3cc(F)ccc3[nH]2)CC1`, the Potency was inconclusive [inhibitor, single point].
With `CCc1c(C)sc(NC(=O)Cc2ccccc2OC)c1C(=O)N1CCOCC1` the Potency was “inactive”.
In the case of `CCC(C)c1ccccc1N1CC(C(=O)N2CCN(S(=O)(=O)c3ccc(F)cc3)CC2)CC1=O` (stereo unspecified), the Potency is reported as active: 10.4 µM.
With `CCCCn1c(N)c(N(CCOC)C(=O)c2cc(-c3ccc(F)cc3)nc3ccccc23)c(=O)[nH]c1=O` the Potency was inconclusive [inhibitor, single point].
In the case of `C=CCN=c1scc(-c2ccco2)n1/N=C/c1ccc(O)c(O)c1O`, the Potency is reported as inconclusive [inhibitor, single point].
In the case of `COc1cc(C)ccc1OCCOc1c(Cl)cc(Cl)cc1Cl`, the Potency is reported as inconclusive [inhibitor, partial curve, poor fit].
For `Nn1c(C2COc3ccccc3O2)n[nH]c1=S` (stereo unspecified), the Potency was inconclusive [inhibitor, partial curve, poor fit].
With `O=[N+]([O-])c1ccc(O)c(/C=N/Nc2ncnc3c2cnn3-c2ccccc2)c1` the Potency was active: 1.17 µM.
For `N#CC1=C(N)SC2(CCCCC2)SC1c1ccccc1` (stereo unspecified), the Potency was “inactive”.
In the case of `C#CCOCCOCCOCCNc1nc(N2CCN(C(=O)Cn3cc(CCCCN)nn3)CC2)nc(N2CCN(C(=O)[C@H](CCCCN)n3cc(CCC(=O)O)nn3)CC2)n1`, the Potency is reported as inconclusive [inhibitor, single point].
For `COc1cc([N+](=O)[O-])cc(/C=N/NC(=O)C(C)Nc2cccc3ccccc23)c1O` (stereo unspecified), the Potency was inconclusive [inhibitor, partial curve, poor fit].
In the case of `CCCCN(C(=O)c1ccc(NC(=O)C(C)C)cc1)c1ccccc1`, the Potency is reported as inconclusive [inhibitor, single point].
For `O=C(CN1CCN(c2ccccn2)CC1)Nc1ccc([N+](=O)[O-])cc1C(=O)Nc1ccccc1F`, the Potency was inconclusive [inhibitor, single point].
With `CCCc1cc(=O)oc2cc(C)cc(OC(C)C(=O)NCc3cccnc3)c12` (stereo unspecified) the Potency was active: 8.28 µM.
For `COC(C[C@H]1O[C@@H]1[C@H](O)COCc1ccccc1)OC`, the Potency was inconclusive [inhibitor, single point].
With `CCCNC(=O)Cn1nc(C(F)(F)F)cc1C` the Potency was “inactive”.
In the case of `COc1ccc(-c2sc3cc4c(cc3c2C#CC2(N)CCCCC2)OCO4)cc1`, the Potency is reported as active: 13.1 µM.
For `CCOC(=O)CSc1nnc(CNC(=O)c2ccc(OC)cc2OC)n1-c1ccc(OC)cc1`, the Potency was “inactive”.
With `O=S(=O)(NCCC1=CCCCC1)c1ccccc1Cl` the Potency was inconclusive [inhibitor, single point].
In the case of `COc1cccc(NS(=O)(=O)c2ccc3[nH]cc(C(=O)NCCCOC(C)C)c(=O)c3c2)c1`, the Potency is reported as inconclusive [inhibitor, single point].
For `Clc1ccc(OCc2nn3c(-c4ccco4)nnc3s2)c(Cl)c1`, the Potency was inconclusive [inhibitor, single point].
With `CCn1cc(CNCc2ccc(OCC(O)CN(C)Cc3ccccc3)cc2)cn1` (stereo unspecified) the Potency was inconclusive [inhibitor, partial curve, poor fit].
With `COc1ccc(S(=O)(=O)N2CCN(C3CCN(Cc4ccccc4)CC3)CC2)cc1` the Potency was inconclusive [inhibitor, single point].
For `COCCNC(=S)NCCc1ccc(Cl)cc1Cl`, the Potency was “inactive”.
In the case of `CCOC(=O)C1CN(S(=O)(=O)c2ccc(Cl)cc2)c2cc(S(=O)(=O)CC)ccc2O1` (stereo unspecified), the Potency is reported as inconclusive [inhibitor, single point].
With `COC(=O)c1sc(S(=O)(=O)N2CCC(C)CC2)c(C(=O)OC)c1C` the Potency was inconclusive [inhibitor, single point].
For `CC1(C)Cc2c(c(N3CCCC3)nc3sc4c(N5CCN(CCO)CC5)ncnc4c23)CO1`, the Potency was active: 8.28 µM.
With `Cc1cccc(C)c1OCC(=O)NNC(=O)CCNC(=O)c1ccco1` the Potency was inconclusive [inhibitor, single point].
With `Cc1cc2cc(CNC(=O)Cc3ccc([N+](=O)[O-])cc3)ccc2[nH]1` the Potency was “inactive”.
For `CC(C)C1N(c2ccccc2)C(N)=C(C#N)C1(C#N)C#N` (stereo unspecified), the Potency was inconclusive [inhibitor, single point].
In the case of `O=c1cc(CN2CCN(S(=O)(=O)c3ccc4c(c3)OCCO4)CC2)c2ccc(O)cc2o1`, the Potency is reported as inconclusive [inhibitor, single point].
In the case of `COc1ccc2nc3c(cc2c1)c(NC(=O)c1cccs1)nn3CC(C)C`, the Potency is reported as inconclusive [inhibitor, single point].
With `Cc1nc(N/N=C/c2ccc(Br)cc2)cc(N2CCOCC2)n1` the Potency was inconclusive [inhibitor, single point].
With `O=C(C1=C(O)C(=O)N(c2ncccn2)C1c1ccc(Cl)c(Cl)c1)c1ccco1` (stereo unspecified) the Potency was “inactive”.
In the case of `COc1ccc(OC)c(S(=O)(=O)N2CCN(CC(O)COc3ccc(C#N)cc3)CC2)c1` (stereo unspecified), the Potency is reported as inconclusive [inhibitor, partial curve].
For `N#Cc1ccc(N/N=C/c2ccccc2)c([N+](=O)[O-])c1`, the Potency was “inactive”.
In the case of `CCOC(=O)CSc1nnc(-c2ccccc2NC(=O)c2ccccc2)o1`, the Potency is reported as “inactive”.
For `COC(=O)c1ccc2[nH]c3cccc(/C(=C/c4ccccc4)c4ccccc4)c3c2c1`, the Potency was inconclusive [inhibitor, partial curve, poor fit].
For `CC1CN(c2ccc([N+](=O)[O-])c(N3CCCCC3)c2)CCN1` (stereo unspecified), the Potency was inconclusive [inhibitor, single point].
For `Cc1cc2oc3c(c(=O)c2cc1C)C(c1ccc(F)cc1)N(CCCN1CCOCC1)C3=O` (stereo unspecified), the Potency was active: 11.7 µM.
With `CC1CCCC(C)N1C(=O)COC(=O)C1CCN(S(=O)(=O)c2ccc3c(c2)OCCO3)CC1` (stereo unspecified) the Potency was inconclusive [inhibitor, single point].
For `COc1cc(/C=N\NC(C)=O)ccc1OC/C=C/c1ccccc1`, the Potency was inconclusive [inhibitor, partial curve, poor fit].
In the case of `O=C(Cc1ccc(Cl)c(Cl)c1)Nc1ccccc1N1CCCC1`, the Potency is reported as “inactive”.
With `CCn1c(=O)c(CCC(=O)NCCN2CCOCC2)c(C)c2c(C)nn(-c3cccc(C)c3)c21` the Potency was inconclusive [inhibitor, single point].
For `CN(C)S(=O)(=O)c1ccc(Cl)c(NC(=O)CN2C(=O)NC3(CCc4ccccc43)C2=O)c1` (stereo unspecified), the Potency was inconclusive [inhibitor, single point].
For `OCCNc1nc(N2CCN(c3ccccc3)CC2)nc2ccccc12`, the Potency was inconclusive [inhibitor, single point].
With `C/C(=N\NC(=O)c1ccoc1C)c1cccc2ccccc12` the Potency was inconclusive [inhibitor, full curve, poor fit].
For `CCCC(=O)Nc1nc2ccc(S(=O)(=O)N3CCCCC3)cc2s1`, the Potency was inconclusive [inhibitor, single point].
With `Cc1csc(NC(=O)CSCC(=O)O)c1-c1nc2ccccc2s1` the Potency was inconclusive [inhibitor, single point].
In the case of `CC(C)c1ccc(/C=N/NC(=O)c2cccc(Cl)c2)cc1`, the Potency is reported as “inactive”.
With `CC(C)(C)OC(=O)N1CCC(CNC(=O)c2ccc(F)cc2F)CC1` the Potency was inconclusive [inhibitor, single point].
In the case of `CC1CC(Nc2ccccc2)c2ccccc2N1C(=O)c1ccco1` (stereo unspecified), the Potency is reported as inconclusive [inhibitor, partial curve].
In the case of `CCCN(CCC)C1CCc2ccc(O)cc2C1` (stereo unspecified), the Potency is reported as inconclusive [inhibitor, partial curve, poor fit].
With `Cc1ccc(C)c(/C(O)=C2\C(=O)C(=O)N(CCCN3CCOCC3)C2c2cccnc2)c1` (stereo unspecified) the Potency was “inactive”.
With `CCC(C)(C)n1nnnc1CN(Cc1cc2cc(OC)ccc2[nH]c1=O)C1CCCC1` the Potency was inconclusive [inhibitor, partial curve].
In the case of `c1ccc(C2(c3ccccc3)CC2C2=NCCN2)cc1` (stereo unspecified), the Potency is reported as inconclusive [inhibitor, single point].
With `Cc1ccc(-n2ncc(-c3nnc(SCC(=O)NC4CCCC4)o3)c2N)cc1C` the Potency was inconclusive [inhibitor, partial curve].
For `O=C(/C(N=Nc1cccc([N+](=O)[O-])c1)=C(/O)c1ccc(Br)cc1)C(F)(F)F`, the Potency was inconclusive [inhibitor, full curve].
With `O=[N+]([O-])c1c2ccccc2cc2ccccc12` the Potency was active: 2.62 µM.
For `C=CCn1c(SCC(=O)NC2CCCCC2)nc2ccccc2c1=O`, the Potency was “inactive”.
With `Cc1cc(C)c(CN2CCC(n3nccc3NC(=O)c3ccccc3Cl)CC2)cc1C` the Potency was inconclusive [inhibitor, single point].
With `CCN(CC)c1ccc(CNCCc2ccccc2F)cc1` the Potency was “inactive”.
With `CCOC(=O)C1=C(C)C2C3C(=O)N(c4ccccc4C)C(=O)C3C1(C)C1C(=O)N(c3ccccc3C)C(=O)C21` (stereo unspecified) the Potency was inconclusive [inhibitor, single point].
With `O=C(CSc1nc(=O)n2ccccc2n1)NCc1ccccc1Cl` the Potency was inconclusive [inhibitor, single point].
For `COc1ccc(C2(O)CN(c3ccccc3)C3=[N+]2CCS3)cc1OC` (stereo unspecified), the Potency was “inactive”.
